Laboratory results reported in the supplement of paper PMC4604168 (melanoma cell lines).
Some of the results follow. Single values are uncertain, as repeats are few or missing.

Columns and labels:
Assay in all cases: cell count relative to DMSO control; melanoma cells; higher = more viable cells
Settings in all cases: library dose: standard library concentration; 72 h
501Mel = system: 501Mel
A101D = system: A101D
A2058 = system: A2058
A375 = system: A375
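Further: cells treated in 1,536-well plates, then fixed and DAPI-stained, with nuclei counted from automated high-throughput microscope images.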

Row | Compound | cell count (501Mel) | cell count (A101D) | cell count (A2058) | cell count (A375)
1 | CN(NC(=O)CC(=O)NN(C)C(=S)c1ccccc1)C(=S)c1ccccc1 + Oc1cc(-c2nc(-c3ccccc3)[nH]c2-c2ccncc2)ccc1Cl [L779450] (first compound 0.03 µM, partner dose 1 µM) | 10.8% | 30.4% | 10.2% | 87.5%
2 | CC(C)(C)c1cnc(CSc2cnc(NC(=O)C3CCNCC3)s2)o1 + CC(C)CCN1c2nc(Nc3cc(F)c(O)c(F)c3)ncc2N(C)C(=O)C1C [BID1870] (first compound 0.05 µM, partner dose 1 µM) | 70.7% | 45.2% | 72.8% | 79.9%
3 | NC(=O)c1ccc(N(C(N)=O)c2c(F)cccc2F)nc1-c1ccc(F)cc1F + O=C(Nc1ccccc1)c1cc([N+](=O)[O-])ccc1Cl [GW9662] (first compound 2 µM, partner dose 10 µM) | 57.6% | 76.8% | 96.8% | 83%
4 | CC(C)(C)c1cnc(CSc2cnc(NC(=O)C3CCNCC3)s2)o1 + CCN(CC)CCCCNc1ncc2cc(-c3cc(OC)cc(OC)c3)c(NC(=O)NC(C)(C)C)nc2n1 [PD173074] (first compound 0.05 µM, partner dose 0.5 µM) | 66% | 74.3% | 82.9% | 94.2%
5 | Cc1ccc(NC(=O)c2cccc(N(C)C)c2)cc1NC(=O)c1ccc(O)cc1 + Cn1cc(/C=C2\C(=O)Nc3cccnc32)c2ccccc21 [GW441756] (first compound 10 µM, partner dose 2 µM) | 75.8% | 76.4% | 105% | 174%
6 | COc1cc2c(Oc3ccc4[nH]c(C)cc4c3F)ncnc2cc1OCCCN1CCCC1 [cediranib] + COc1cc2ncnc(Nc3ccc(Oc4ccccc4)cc3)c2cc1OC [SrcI1] (first compound 2 µM, partner dose 10 µM) | 66.5% | 51% | 101% | 167%
7 | COc1cc2c(Oc3ccc4[nH]c(C)cc4c3F)ncnc2cc1OCCCN1CCCC1 [cediranib] + CCCCCCCCCCCC1=C(O)C(=O)C=C(O)C1=O [Embelin] (first compound 2 µM, partner dose 6 µM) | 88.5% | 95.5% | 104% | 105%
8 | NC(=O)c1ccc(N(C(N)=O)c2c(F)cccc2F)nc1-c1ccc(F)cc1F + COc1cc2ncnc(Nc3ccc(Oc4ccccc4)cc3)c2cc1OC [SrcI1] (first compound 2 µM, partner dose 10 µM) | 78.8% | 55% | 85.6% | 119%
9 | CC(C)(C)c1cnc(CSc2cnc(NC(=O)C3CCNCC3)s2)o1 + COc1ccc(-c2ccc3c(N4CCOCC4)nc(N4C[C@@H](C)O[C@@H](C)C4)nc3n2)cc1CO [KU0063794] (first compound 0.05 µM, partner dose 0.1 µM) | 95.6% | 76.2% | 80.3% | 87.8%
10 | CC(C)(C)c1cnc(CSc2cnc(NC(=O)C3CCNCC3)s2)o1 + COC(=O)c1sccc1S(=O)(=O)Nc1ccc(Nc2ccccc2)cc1OC [GSK0660] (first compound 0.05 µM, partner dose 5 µM) | 82.8% | 79.8% | 91.8% | 88.4%
11 | Cc1ccc(NC(=O)c2cccc(N(C)C)c2)cc1NC(=O)c1ccc(O)cc1 + CCCCCCCCCCCC1=C(O)C(=O)C=C(O)C1=O [Embelin] (first compound 10 µM, partner dose 6 µM) | 68.2% | 80.6% | 91.1% | 128%
12 | COc1cc2c(Oc3ccc4[nH]c(C)cc4c3F)ncnc2cc1OCCCN1CCCC1 [cediranib] + CC(C)CCN1c2nc(Nc3cc(F)c(O)c(F)c3)ncc2N(C)C(=O)C1C [BID1870] (first compound 2 µM, partner dose 1 µM) | 58.7% | 61% | 87.9% | 114%
13 | CN(NC(=O)CC(=O)NN(C)C(=S)c1ccccc1)C(=S)c1ccccc1 + Oc1nc(-c2ccc(C(F)(F)F)cc2)nc2c1CSCC2 [XAV939] (first compound 0.03 µM, partner dose 10 µM) | 6.09% | 52.7% | 8.56% | 102%
14 | Cc1ccc(NC(=O)c2cccc(N(C)C)c2)cc1NC(=O)c1ccc(O)cc1 + COc1ccc2c(c1)CCC1C2CCC2(C)C(NCCCCCCN3C(=O)C=CC3=O)CCC12 [U73122] (first compound 10 µM, partner dose 2 µM) | 77.4% | 76.2% | 70.7% | 65.7%
